# Results are given in words; binding and its absence hold for the method and conditions named. In cells and extracts the contact can be indirect. Some entries that bind do so weakly or less than the wild type.
# Protein sequences, listed by entry. Tags and fused reporters are not part of them. Lines headed by an entry give the natural chain unless they say otherwise; changes in a name come on top. Residues count along the entry.
# UniProt Q07817: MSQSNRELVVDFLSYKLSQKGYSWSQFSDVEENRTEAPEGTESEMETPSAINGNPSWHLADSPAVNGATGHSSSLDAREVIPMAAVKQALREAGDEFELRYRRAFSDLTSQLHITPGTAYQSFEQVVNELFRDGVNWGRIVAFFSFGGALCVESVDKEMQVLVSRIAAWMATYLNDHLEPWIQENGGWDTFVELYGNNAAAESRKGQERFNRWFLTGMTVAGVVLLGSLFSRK
# EGFP-Bcl-XL(1–195): residues 1-195 of Q07817
# GST-Bcl-XL(86–195): residues 86-195 of Q07817
# GST-Bcl-XL(196–233): residues 196-233 of Q07817
# UniProt Q99497: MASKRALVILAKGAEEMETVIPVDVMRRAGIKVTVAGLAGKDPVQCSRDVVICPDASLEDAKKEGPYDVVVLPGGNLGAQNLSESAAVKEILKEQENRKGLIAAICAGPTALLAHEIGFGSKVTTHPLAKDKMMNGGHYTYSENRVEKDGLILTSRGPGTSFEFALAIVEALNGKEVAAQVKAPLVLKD
# What was measured:
# [1] = target: Bcl-XL (endogenous, H1299) (human (endogenous in H1299)) (UniProt Q07817); assay: co-IP; lysates of H1299 cells transfected with Flag-DJ-1 or Flag-DJ-1(L166P); precipitated with anti-Bcl-XL antibody or normal mouse serum on protein G Sepharose; lysis buffer 50 mM Tris-HCl pH 7.5, 150 mM NaCl, 1% NP40, 0.5% deoxycholate
# [2] = target: EGFP-Bcl-XL (human) (UniProt Q07817); assay: co-IP; lysates of HEK293 cells co-transfected with EGFP or EGFP-Bcl-XL and Flag-DJ-1, Flag-DJ-1(L166P) or Flag-DJ-1(M26I); precipitated with anti-GFP antibodies
# [3] = target: EGFP-Bcl-XL (human) (UniProt Q07817); assay: co-IP; lysates of H1299 cells transiently transfected with EGFP, EGFP-Bcl-XL or its fragments and Flag-DJ-1(L166P); with or without 80 mJ/cm^2 UVB irradiation; precipitated with anti-GFP antibodies
# [4] = target: EGFP-Bcl-XL(196–233) (human) (UniProt Q07817); assay: as above
# [5] = target: EGFP-Bcl-XL(1–195) (human) (UniProt Q07817); assay: as above
# [6] = target: EGFP-Bcl-XL(1–195) (human) (UniProt Q07817); assay: co-IP; H1299 cells stably expressing EGFP-Bcl-XL or EGFP-Bcl-XL(1–195), transfected with various amounts of Flag-DJ-1(L166P), 80 mJ/cm^2 UVB irradiation; lysates precipitated with anti-GFP antibodies
# [7] = target: GST-Bcl-XL(86–195) (human) (UniProt Q07817); assay: pull-down; GST, GST-Bcl-XL, GST-Bcl-XL(1–85), (86–195) or (196–233) on glutathione-agarose beads; supernatant of E. coli crude extract with His-DJ-1 or His-DJ-1(L166P); immunoblot; only the target purified
# [8] = target: GST-Bcl-XL(196–233) (human) (UniProt Q07817); assay: as above
substance,measurement,setting,value
Flag-DJ-1 (from UniProt Q99497 1-189),binding,[1],binds
Flag-DJ-1(L166P) (from UniProt Q99497 1-189),binding,[2],binds
same,binding,[3],binds
same,binding,[4],binds
same,binding,[5],no binding
same,binding,[6],no binding
same,binding,[1],binds
Flag-DJ-1(M26I) (from UniProt Q99497 1-189),binding,[2],binds
His-DJ-1 (from UniProt Q99497 1-189),binding,[7],binds
His-DJ-1(L166P) (from UniProt Q99497 1-189),binding,[8],binds

# Source: article PMC3479024
